Results reported in PubChem BioAssay (Tox21).
Where “and” joins values, the source holds several entries; their conditions need not be identical. Identical values can stand only once. Inconclusive results, whose numbers are uncertain, are shown with a selection of clear calls. Potencies of inconclusive entries are doubtful fits and often do not repeat. Calls of active or inactive are those of the source. Unless noted, the call rests on the fitted dose curve; in most records, active means well fitted curve in the direction sought with a large enough effect in the repeat runs; inconclusive means weak or mixed curves; inactive means no such curve, though single readings can be large; an effect the other way counts as inactive or inconclusive.

Key:
[1] = qHTS assay to identify small molecule antagonists of the androgen receptor (AR) signaling pathway using the MDA cell line in the presence of 0.5 nM R1881 - cell viability counter screen (AID 1259242); further: nearly all actives have a fitted effect of over 45% in size
How it was run: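 Fluorescence from CellTiter-Fluor, which reports protease activity of live cells, was read 30 min after reagent addition to MDA-kb2 cells that had been incubated 16 hr with compound and 0.5 nM R1881.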

[2] = qHTS assay to identify small molecule antagonists of the sonic hedgehog signaling (Shh) pathway - cell viability counter screen (AID 1259367); further: nearly all actives have a fitted effect of over 55% in size
How it was run: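 NIH/3T3-derived Gli1-Luc reporter cells (2,000 per well) rested 4 hr at 37 C, then received DMSO compounds plus conditioned medium. After 23 hr of treatment, CellTiter-Fluor was added for 1 hr at 37C and fluorescence read.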

[3] = qHTS assay to identify small molecule antagonists of the sonic hedgehog signaling (Shh) pathway (AID 1259369; calls by dose curve; further: nearly all actives have a fitted effect of over 45% in size)
How it was run: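 Screening used 3T3Gli1-Luc cells at 2,000 per well, compounds delivered in DMSO, and conditioned medium as agonist stimulus; plates incubated 24hr at 37 C and 5% CO2 before a 30min luciferase step.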

[4] = biological target: Estrogen receptor beta (Homo sapiens) (UniProt Q92731); experiment: qHTS assay to identify small molecule agonists of the estrogen receptor beta (ER-beta) signaling pathway (AID 1259377; active means well fitted activation curve with a large enough effect in the signal ratio in the repeat runs, not every such curve was filed as active; inconclusive means weak or mixed curves, or effect the other way; the % refers to the signal ratio); details: ER-beta-UAS-bla HEK293T, beta-lactamase FRET ratio, 16 h; activation: at 92.4 µM (top of the series) unless noted
UniProt Q92731, sequence (Q92731 whole entry, looked up, the tested form may be a part): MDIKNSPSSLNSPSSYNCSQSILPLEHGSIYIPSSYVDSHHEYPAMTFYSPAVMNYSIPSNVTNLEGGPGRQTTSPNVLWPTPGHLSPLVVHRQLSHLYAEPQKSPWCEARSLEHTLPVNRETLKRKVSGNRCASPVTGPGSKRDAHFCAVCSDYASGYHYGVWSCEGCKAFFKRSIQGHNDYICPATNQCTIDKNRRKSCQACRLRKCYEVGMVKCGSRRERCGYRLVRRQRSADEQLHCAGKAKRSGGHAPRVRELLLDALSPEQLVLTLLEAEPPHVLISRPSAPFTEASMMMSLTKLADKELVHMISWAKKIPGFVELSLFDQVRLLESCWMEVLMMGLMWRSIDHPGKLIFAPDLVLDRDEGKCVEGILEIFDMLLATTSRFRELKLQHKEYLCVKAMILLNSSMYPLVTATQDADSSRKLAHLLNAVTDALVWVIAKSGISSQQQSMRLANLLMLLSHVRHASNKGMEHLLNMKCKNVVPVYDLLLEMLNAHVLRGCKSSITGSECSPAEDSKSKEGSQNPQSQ
How it was run: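 Agonist mode cell assay in GripTite HEK293T cells expressing an ER-beta fusion that drives beta-lactamase from an Upstream Activator Sequence; 16 hr compound exposure at 37C, then 2 h LiveBLAzer B/G FRET substrate at room temperature, fluorescence read-out.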

[5] = biological target: Estrogen receptor beta (Homo sapiens) (UniProt Q92731); experiment: qHTS assay to identify small molecule antagonists of the estrogen receptor beta (ER-beta) signaling pathway (AID 1259378; active means well fitted inhibition curve with a large enough effect in the signal ratio in the repeat runs, not every such curve was filed as active; inconclusive means weak or mixed curves, or effect the other way; inactive means no such curve, though single readings can be large or run the other way; the % refers to the signal ratio); details: ER-beta-UAS-bla HEK293T, beta-lactamase FRET ratio, 16 h; activity, negative = inhibition: at 92.4 µM (top of the series) unless noted
How it was run: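 ER-beta-UAS-bla HEK293T (GripTite) cells in 2% charcoal-stripped FBS medium were preincubated 6 hr at 37C, dosed with compound, then stimulated with 1 nM E2 (final) for 16 hr; beta-lactamase reporter read by B/G FRET fluorescence after 2 hr substrate loading.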

[6] = qHTS assay to identify small molecule agonists of the androgen receptor (AR) signaling pathway in the presence of an antagonist - cell viability counter screen (AID 1259379); further: nearly all actives have a fitted effect of over 25% in size
How it was run: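 In MDA-kb2 cells (human breast carcinoma, MMTV-luciferase), compounds at 15 concentrations plus 3.0uM nilutamide; 16 hr, 37C, 0% CO2; CellTiter-Fluor fluorescence read for viability.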

[7] = qHTS assay to identify small molecule agonists of the estrogen receptor alpha (ER-alpha) signaling pathway in the presence of an antagonist - cell viability counter screen (AID 1259386);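 further: cells exposed to compounds for 22 h at 37 °C before the viability read; nearly all actives have a fitted effect of over 30% in size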
How it was run: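 Fluorescent CellTiter-Fluor viability signal from VM7Luc4E2 cells, with the reagent added during the final hour of a 22hr compound exposure at 37C in the presence of 10.0nM ICI-182,780.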

[8] = biological target: Estrogen receptor (Homo sapiens) (UniProt P03372); experiment: qHTS assay to identify small molecule antagonists of the estrogen receptor alpha (ER-alpha) signaling pathway using the BG1 cell line in the presence of 0.1 nM 17-beta-estradiol (AID 1259244); further: nearly all actives have a fitted effect of over 50% in size
UniProt P03372, sequence (P03372 whole entry, looked up): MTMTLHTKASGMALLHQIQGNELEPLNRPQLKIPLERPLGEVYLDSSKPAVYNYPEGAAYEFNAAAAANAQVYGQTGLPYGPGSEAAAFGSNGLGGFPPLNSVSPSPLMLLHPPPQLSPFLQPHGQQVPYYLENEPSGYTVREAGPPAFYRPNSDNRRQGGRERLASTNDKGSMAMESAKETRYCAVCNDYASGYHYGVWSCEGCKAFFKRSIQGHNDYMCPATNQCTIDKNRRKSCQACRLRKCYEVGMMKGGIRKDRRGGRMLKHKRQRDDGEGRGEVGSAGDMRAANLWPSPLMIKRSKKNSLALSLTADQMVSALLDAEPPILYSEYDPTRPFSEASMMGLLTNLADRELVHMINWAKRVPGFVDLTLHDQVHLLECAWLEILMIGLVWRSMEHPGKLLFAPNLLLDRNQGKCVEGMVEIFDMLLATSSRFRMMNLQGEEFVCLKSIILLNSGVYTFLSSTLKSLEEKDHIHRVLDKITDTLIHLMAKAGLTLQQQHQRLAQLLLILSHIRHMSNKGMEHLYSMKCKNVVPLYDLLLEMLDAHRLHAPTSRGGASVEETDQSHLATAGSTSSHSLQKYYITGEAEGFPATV
How it was run: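 Quantitative high-throughput screen in VM7Luc4E2 cells: compound plus 0.1 nM E2 (final), 22 h, 37C, 5% CO2; ONE-Glo added, 30 min room temperature, luminescence measured.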

[9] = qHTS assay to identify small molecule agonists of the sonic hedgehog signaling (Shh) pathway - cell viability counter screen (AID 1259366); further: nearly all actives have a fitted effect of over 50% in size
How it was run: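 Cells are plated at 2,000 per well and left 4hr at 37C, 5% CO2 before compound addition. After 23hr of treatment, CellTiter-Fluor reagent is added for 1hr at 37C and fluorescence is measured.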

[10] = qHTS assay to identify small molecule antagonists of the estrogen receptor beta (ER-beta) signaling pathway - cell viability counter screen (AID 1259382); further: nearly all actives have a fitted effect of over 55% in size
How it was run: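 Tox21 10K library tested in qHTS format on ER-beta-bla HEK293T cells stimulated with 1nM E2; 16 hr treatment at 37C. Same-well CellTiter-Glo luminescence served as the cell viability measure.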

[11] = biological target: Thyrotropin receptor (Homo sapiens) (UniProt P16473); experiment: qHTS assay to identify small molecule antagonists of the thyroid stimulating hormone receptor (TSHR) signaling pathway (AID 1259385; calls by dose curve; further: nearly all actives have a fitted effect of over 20% in size; on activity change, negative = inhibition: on the % scale 0 is the no-effect control and ±100 the full control effect); details: TSHR-HEK293 cAMP HTRF, TSH-stimulated antagonist mode; activity change, negative = inhibition: at 92.4 µM (top of the series) unless noted
UniProt P16473, sequence (P16473 whole entry, looked up): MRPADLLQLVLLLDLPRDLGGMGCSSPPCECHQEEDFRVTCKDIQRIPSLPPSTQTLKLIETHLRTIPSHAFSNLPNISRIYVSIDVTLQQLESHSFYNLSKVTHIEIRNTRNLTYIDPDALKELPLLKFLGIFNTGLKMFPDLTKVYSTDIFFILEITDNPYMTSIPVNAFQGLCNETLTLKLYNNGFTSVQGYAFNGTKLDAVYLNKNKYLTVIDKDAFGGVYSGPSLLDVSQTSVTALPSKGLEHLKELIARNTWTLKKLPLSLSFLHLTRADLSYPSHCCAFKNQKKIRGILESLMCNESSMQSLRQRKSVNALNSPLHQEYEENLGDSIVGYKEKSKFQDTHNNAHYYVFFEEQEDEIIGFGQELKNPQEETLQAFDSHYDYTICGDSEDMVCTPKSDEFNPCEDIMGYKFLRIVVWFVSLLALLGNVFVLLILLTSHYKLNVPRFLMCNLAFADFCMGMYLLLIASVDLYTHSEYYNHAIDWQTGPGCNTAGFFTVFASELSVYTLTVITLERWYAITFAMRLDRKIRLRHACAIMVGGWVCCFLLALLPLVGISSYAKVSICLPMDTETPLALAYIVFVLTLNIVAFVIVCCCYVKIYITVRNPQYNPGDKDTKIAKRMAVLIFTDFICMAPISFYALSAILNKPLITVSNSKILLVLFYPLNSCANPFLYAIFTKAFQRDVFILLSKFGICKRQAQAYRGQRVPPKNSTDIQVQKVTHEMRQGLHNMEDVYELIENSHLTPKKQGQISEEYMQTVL
How it was run: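 TSHR-HEK293 cells were plated and held 18 h at 37C/5% CO2, then given compound plus Ro20-1724 and stimulated with TSH at 1.5 ng/mL final. After 30 min at room temperature, cAMP was detected with cAMP-d2/anti-cAMP-cryptate (1 h) by fluorescence.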

[12] = qHTS assay to identify small molecule agonists of the estrogen receptor beta (ER-beta) signaling pathway - cell viability counter screen (AID 1259380); further: nearly all actives have a fitted effect of over 30% in size
How it was run: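 Viability of ER-beta-UAS-bla HEK293T cells was determined by CellTiter-Glo luminescence following 16 hr treatment with test compounds at 37C.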

[13] = biological target: Androgen receptor (Homo sapiens) (UniProt P10275); experiment: qHTS assay to identify small molecule antagonists of the androgen receptor (AR) signaling pathway using the MDA cell line in the presence of 0.5 nM R1881 (AID 1259243); further: nearly all actives have a fitted effect of over 50% in size
UniProt P10275, sequence (P10275 whole entry, looked up): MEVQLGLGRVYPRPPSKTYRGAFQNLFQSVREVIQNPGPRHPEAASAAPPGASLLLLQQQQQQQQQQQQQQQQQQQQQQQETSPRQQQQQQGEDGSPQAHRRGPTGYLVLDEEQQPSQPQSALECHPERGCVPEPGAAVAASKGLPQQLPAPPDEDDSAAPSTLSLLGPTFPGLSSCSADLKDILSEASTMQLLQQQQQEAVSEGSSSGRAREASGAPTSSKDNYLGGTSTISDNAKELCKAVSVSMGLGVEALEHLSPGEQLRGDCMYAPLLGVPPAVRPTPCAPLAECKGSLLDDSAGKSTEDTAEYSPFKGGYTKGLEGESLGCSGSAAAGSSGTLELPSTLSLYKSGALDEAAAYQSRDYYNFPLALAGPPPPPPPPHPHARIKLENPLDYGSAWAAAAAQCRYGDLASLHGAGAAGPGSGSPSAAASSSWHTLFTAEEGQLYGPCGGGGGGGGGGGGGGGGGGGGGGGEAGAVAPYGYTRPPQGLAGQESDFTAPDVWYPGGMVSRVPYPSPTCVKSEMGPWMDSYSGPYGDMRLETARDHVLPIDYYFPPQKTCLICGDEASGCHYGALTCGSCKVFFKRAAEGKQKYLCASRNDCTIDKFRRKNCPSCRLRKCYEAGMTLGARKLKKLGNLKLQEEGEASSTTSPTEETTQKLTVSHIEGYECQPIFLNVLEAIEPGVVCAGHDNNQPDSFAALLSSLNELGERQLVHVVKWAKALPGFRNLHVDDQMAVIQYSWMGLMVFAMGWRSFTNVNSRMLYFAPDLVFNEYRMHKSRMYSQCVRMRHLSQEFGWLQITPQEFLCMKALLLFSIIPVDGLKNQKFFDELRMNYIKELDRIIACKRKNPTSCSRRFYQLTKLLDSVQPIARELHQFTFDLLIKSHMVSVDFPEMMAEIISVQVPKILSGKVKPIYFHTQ
How it was run: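 Inhibition of R1881 (0.5 nM final) induced reporter signal was measured in human MDA-kb2 cells; note the MMTV promoter also responds to GR. Exposure lasted 16 hr at 37C.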

[14] = qHTS assay to identify small molecule HDAC inhibitors - cell viability counter screen (AID 1259365); further: nearly all actives have a fitted effect of over 50% in size
How it was run: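 Counter screen in wild-type HCT-116 cells: compounds dissolved in DMSO are pin-transferred onto overnight-plated cells and left 2hr at 37C. ATP-based CellTiter-Glo luminescence then measures viable cells.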

[15] = qHTS assay to identify small molecule phospholipidosis (PLD) inducers (AID 1259344; active means well fitted curve in the direction sought with a large enough effect; inconclusive means small, poorly fitted or top-dose-only effect, or another doubt; inactive means no such curve, though single readings can be large; an effect the other way counts as inactive or inconclusive)
How it was run: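 HepG2 cells on collagen I, attached 4 h at 37 C, were co-treated with compound and LipidTOX Red dye for 24 h at 37 C, then fixed with paraformaldehyde plus Hoechst 33342 and imaged by high-content microscopy for phospholipid accumulation.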
Potency means the concentration at half of the fitted maximal effect; tags describe the fitted curve by direction and shape or compound fluorescence and quenching.

SMILES: Oc1ccc(C2(c3ccc(O)cc3)CC3CC2C2CCCC32)cc1 (configuration not stated)
- Potency [1]: inconclusive: 65.9 µM [cytotoxic]
- Potency [2]: inconclusive: 65.9 µM [cytotoxic, single point]
- Potency [3]: active: 20.8 µM
- Potency [4]: inconclusive: 65.9 µM [cytotoxic, single point]
- Potency [5]: inconclusive: 65.9 µM [cytotoxic, single point]
- Potency [6]: inconclusive: 65.9 µM [cytotoxic, partial curve, poor fit]
- Potency [7]: inconclusive: 65.9 µM [cytotoxic, single point]

SMILES: Clc1ccc(C(Cn2ccnc2)OCc2ccsc2Cl)c(Cl)c1 (configuration not stated)
- Potency [8]: inconclusive: 15 µM [inhibitor, partial curve]
- Potency [9]: inconclusive: 33.5 µM [cytotoxic]
- Potency [2]: inconclusive: 29.8 µM [cytotoxic, partial curve, poor fit]
- Potency [3]: active: 11.9 µM
- Potency [4]: inconclusive: 13.3 µM [falling, partial curve, poor fit]
- Potency [5]: active: 10.6 µM
- Potency [6]: inconclusive: 33.5 µM [cytotoxic, single point]
- Potency [10]: active: 29.8 µM
- activity change, negative = inhibition [11]: inconclusive: -11.5% [at 42.5 µM]

SMILES: O=C(COc1ccc(Cl)cc1)N1CCN(Cc2ccc3c(c2)OCO3)CC1
- Potency [1]: inconclusive: 68.6 µM [cytotoxic, single point]
- Potency [3]: active: 17.2 µM and active: 18.8 µM
- Potency [12]: inconclusive: 12.2 µM [cytotoxic, partial curve] and inconclusive: 2.98 µM [cytotoxic, full curve]

SMILES: NC(N)=NC(N)=NCCc1ccccc1
- Potency [1]: inconclusive: 60.8 µM [cytotoxic, partial curve, poor fit] and inconclusive: 61.1 µM [cytotoxic, partial curve]
- Potency [3]: inconclusive: 30.6 µM [inhibitor, partial curve, poor fit] and inconclusive: 18.8 µM [inhibitor, partial curve]
- Potency [6]: active: 48.3 µM and active: 54.5 µM and active: 26.6 µM
- Potency [10]: inconclusive: 76.5 µM [cytotoxic, partial curve, poor fit]
- Potency [7]: inconclusive: 10.6 µM [cytotoxic, partial curve]

SMILES: C=CC(=O)OCC(CO)(COCC(COC(=O)C=C)(COC(=O)C=C)COC(=O)C=C)COC(=O)C=C
- Potency [13]: active: 2.4 µM
- Potency [14]: inconclusive: 8.53 µM [rising, full curve]
- Potency [9]: active: 1.07 µM
- Potency [3]: active: 0.48 µM
- Potency [4]: inconclusive: 9.57 µM [rising, full curve]
- Potency [5]: active: 4.8 µM
- Potency [7]: active: 10.7 µM

SMILES: C=C1C(CCl)(CCl)C2(Cl)C(Cl)C(Cl)C1(Cl)C2(Cl)Cl (configuration not stated)
- Potency [13]: active: 48 µM
- Potency [9]: inconclusive: 67.8 µM [cytotoxic, single point]
- Potency [3]: inconclusive: 30.3 µM [inhibitor, partial curve, poor fit]
- Potency [5]: active: 27 µM
- Potency [12]: active: 48 µM
- Potency [10]: inconclusive: 67.8 µM [cytotoxic, single point]
- Potency [7]: inconclusive: 67.8 µM [cytotoxic, single point]

SMILES: Cc1cc(Br)ccc1NC(=O)CCl
- Potency [1]: active: 48.6 µM
- Potency [3]: active: 4.33 µM
- Potency [4]: inconclusive: 43.3 µM [rising, partial curve]
- Potency [5]: inconclusive: 30.6 µM
- Potency [7]: inconclusive: 68.6 µM [cytotoxic]

SMILES: CCc1cc(Cc2cc(CC)cc(C(C)(C)C)c2O)c(O)c(C(C)(C)C)c1
- Potency [1]: inconclusive: 48.6 µM [cytotoxic, partial curve]
- Potency [2]: active: 61.1 µM
- Potency [3]: active: 27.3 µM
- Potency [4]: inconclusive: 27.3 µM
- Potency [5]: inconclusive: 30.6 µM [cytotoxic]
- Potency [12]: active: 19.3 µM
- Potency [10]: active: 24.3 µM

SMILES: CCCN(CCC)C(=O)C(CCC(=O)OCCCN1CCN(CCOC(=O)Cc2c(C)n(C(=O)c3ccc(Cl)cc3)c3ccc(OC)cc23)CC1)NC(=O)c1ccccc1 (configuration not stated)
- Potency [13]: inconclusive: 29.8 µM [inhibitor, single point]
- Potency [15]: inconclusive: 2.82 µM [activator, single point]
- Potency [9]: active: 11.9 µM
- Potency [2]: active: 10.6 µM
- Potency [12]: active: 10.6 µM
- Potency [11]: inconclusive: 15 µM [falling, partial curve]
- Potency [7]: active: 21.1 µM
